# Measurements: the supplement of paper PMC8728848
# The list shows a part of the results.
# B1: PX9961X-pdi-531-24-531 (Parabacteroides distasonis) (protein)
# chain: DLTEEIHSSVIAENYYNNAGEVMAAMMRPWGHFCGTMQVAQSPWSCNELSSDCAAWPQKGRHGYDNGDWIRLHRHQWIPTDGQVVDAWKKLFEGIGYANNFLTDTENIDFEALQVPMSKAQAQAEMRVYRAYCYWYVMDMFGTAPICEKIGEINPSSKSRAELFAWIEKELNESIPSLSESKTETYGRVSKWGAYALLARLYLNAEIYTGQARWDDCIAACDELAKGGFALDKKWNDTFRADNDKRSTEIIWSIVYDEVYAKGMGWYQRWLHYAHQTGWDLQSGPWNGLVTQPTFYDSFADNDLRKIEGFLIGKQYPRKVDENGNYYYDTTAEPLKGSEEYNGQDLVFVNYIKSMTEGEENSGARSIKYEIQPGTTGDMNNDWVMFRYSEVIYNKAEALMRKNGGKATQEVVDMINSVRQRSFKAEDWEKAKYTTATLTMDEFLAEKGREFAFEGIRRTDLVRFNKFVTTSWWDKTASNEPKRNIFPIPQRQLDANANLSPNEANSLF
# What was measured:
# Test in all cases: glycan array binding signal (z-score within array); higher = stronger binding
# Conditions in all cases: glycan notation: IUPAC condensed, linker removed
# [1] = target: Neu5Ac(a2-3)Gal(b1-3)GlcNAc(b1-2)Man(a1-3)[GlcNAc(b1-4)][Neu5Ac(a2-3)Gal(b1-3)GlcNAc(b1-2)Man(a1-6)]Man(b1-4)GlcNAc(b1-4)GlcNAc
# Method in brief: (§1)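 From the Consortium for Functional Glycomics database, 3228 arrays were curated, keeping only those whose protein sequence was available. Binding is given as a within-array Z-score averaged across arrays sharing a protein sequence and across linkers. Negative Z-scores can be read as non-binding.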
# [2] = target: Neu5Ac(a2-3)Gal(b1-3)GlcNAc(b1-2)Man(a1-3)[Neu5Ac(a2-3)Gal(b1-3)GlcNAc(b1-2)Man(a1-6)]Man(b1-4)GlcNAc(b1-4)GlcNAc
# Method in brief: as §1
# [3] = target: Neu5Ac(a2-3)Gal(b1-3)GlcNAc(b1-3)Gal(b1-3)GlcNAc
# Method in brief: as §1
# [4] = target: Neu5Ac(a2-3)Gal(b1-3)GlcNAc(b1-3)Gal(b1-4)GlcNAc
# Method in brief: as §1
# [5] = target: Neu5Ac(a2-3)Gal(b1-3)GlcNAc(b1-3)GalNAc
# Method in brief: as §1
# [6] = target: Neu5Ac(a2-3)Gal(b1-3)GlcNAc(b1-4)Gal(b1-4)Glc
# Method in brief: as §1
# [7] = target: Neu5Ac(a2-3)Gal(b1-3)GlcNAc(b1-6)GalNAc
# Method in brief: as §1
# [8] = target: Neu5Ac(a2-3)Gal(b1-3)GlcNAc6S
# Method in brief: as §1
# [9] = target: Neu5Ac(a2-3)Gal(b1-3)[Fuc(a1-4)]GlcNAc
# Method in brief: as §1
# [10] = target: Neu5Ac(a2-3)Gal(b1-3)[Fuc(a1-4)]GlcNAc(b1-3)Gal(b1-3)[Fuc(a1-4)]GlcNAc
# Method in brief: as §1
# [11] = target: Neu5Ac(a2-3)Gal(b1-3)[Fuc(a1-4)]GlcNAc(b1-3)Gal(b1-4)[Fuc(a1-3)]GlcNAc
# Method in brief: as §1
# [12] = target: Neu5Ac(a2-3)Gal(b1-3)[GlcNAc(b1-6)]GalNAc
# Method in brief: as §1
# [13] = target: Neu5Ac(a2-3)Gal(b1-3)[Neu5Ac(a2-6)]GalNAc
# Method in brief: as §1
# [14] = target: Neu5Ac(a2-3)Gal(b1-3)[Neu5Ac(a2-6)]GlcNAc(b1-3)[Fuc(a1-3)[Gal(b1-4)]GlcNAc(b1-6)]Gal(b1-4)Glc
# Method in brief: as §1
# [15] = target: Neu5Ac(a2-3)Gal(b1-3)]Neu5Ac(a2-3)Gal(b1-4)]GlcNAc
# Method in brief: as §1
# Neu5Ac(a2-3)Gal(b1-4)Glc = target: Neu5Ac(a2-3)Gal(b1-4)Glc
# Method in brief: as §1
# [16] = target: Neu5Ac(a2-3)Gal(b1-4)GlcNAc
# Method in brief: as §1
# [17] = target: Neu5Ac(a2-3)Gal(b1-4)GlcNAc(b1-2)Man
# Method in brief: as §1
# [18] = target: Neu5Ac(a2-3)Gal(b1-4)GlcNAc(b1-2)Man(a1-3)[GlcNAc(b1-4)][Neu5Ac(a2-3)Gal(b1-4)GlcNAc(b1-2)Man(a1-6)]Man(b1-4)GlcNAc(b1-4)GlcNAc
# Method in brief: as §1
# [19] = target: Neu5Ac(a2-3)Gal(b1-4)GlcNAc(b1-2)Man(a1-3)[Neu5Ac(a2-3)Gal(b1-4)GlcNAc(b1-2)Man(a1-6)]Man(b1-4)GlcNAc(b1-4)GlcNAc
# Method in brief: as §1
# [20] = target: Neu5Ac(a2-3)Gal(b1-4)GlcNAc(b1-2)Man(a1-3)[Neu5Ac(a2-3)Gal(b1-4)GlcNAc(b1-2)Man(a1-6)]Man(b1-4)GlcNAc(b1-4)[Fuc(a1-6)]GlcNAc
# Method in brief: as §1
# [21] = target: Neu5Ac(a2-3)Gal(b1-4)GlcNAc(b1-2)Man(a1-3)[Neu5Ac(a2-6)Gal(b1-4)GlcNAc(b1-2)Man(a1-6)]Man(b1-4)GlcNAc(b1-4)GlcNAc
# Method in brief: as §1
# [22] = target: Neu5Ac(a2-3)Gal(b1-4)GlcNAc(b1-2)[Neu5Ac(a2-3)Gal(b1-4)GlcNAc(b1-4)]Man(a1-3)[GlcNAc(b1-4)][Neu5Ac(a2-3)Gal(b1-4)GlcNAc(b1-2)[Neu5Ac(a2-3)Gal(b1-4)GlcNAc(b1-6)]Man(a1-6)]Man(b1-4)GlcNAc(b1-4)GlcNAc
# Method in brief: as §1
binder,measurement,setting,value
B1,glycan array binding signal (z-score),[1],-0.305
same,glycan array binding signal (z-score),[2],0.812
same,glycan array binding signal (z-score),[3],-0.773
same,glycan array binding signal (z-score),[4],-0.692
same,glycan array binding signal (z-score),[5],-0.825
same,glycan array binding signal (z-score),[6],-0.299
same,glycan array binding signal (z-score),[7],0.382
same,glycan array binding signal (z-score),[8],0.246
same,glycan array binding signal (z-score),[9],-0.686
same,glycan array binding signal (z-score),[10],0.406
same,glycan array binding signal (z-score),[11],0.499
same,glycan array binding signal (z-score),[12],-0.585
same,glycan array binding signal (z-score),[13],-0.684
same,glycan array binding signal (z-score),[14],0.188
same,glycan array binding signal (z-score),[15],-0.257
same,glycan array binding signal (z-score),Neu5Ac(a2-3)Gal(b1-4)Glc,-0.314
same,glycan array binding signal (z-score),[16],-0.205
same,glycan array binding signal (z-score),[17],0.345
same,glycan array binding signal (z-score),[18],-0.411
same,glycan array binding signal (z-score),[19],-0.661
same,glycan array binding signal (z-score),[20],0.262
same,glycan array binding signal (z-score),[21],-0.499
same,glycan array binding signal (z-score),[22],-0.867
